# Measurements reported in a collection of fitness landscapes (doi:10.1126/science.1257360).
# Some of the results follow.
# B1: PhoQ; a variant is named by its letters at X, in order, P23837 (parent)
# chain: MKKLLRLFFPLSLRVRFLLATAAVVLVLSLAYGMVALIGYSVSFDKTTFRLLRGESNLFYTLAKWENNKLHVELPENIDKQSPTMTLIYDENGQLLWAQRDVPWLMKMIQPDWLKSNGFHEIEADVNDTSLLLSGDHSIQQQLQEVREDDDDAEMTHSVAVNVYPATSRMPKLTIVVVDTIPVELKSSYMVWSWFIYVLSANLLLVIPLLWVAAWWSLRPIEALAKEVRELEEHNRELLNPATTRELTSLVRNLNRLLKSERERYDKYRTTLTDLTHSLKTPLXXLQXXLRSLRSEKMSVSDAEPVMLEQISRISQQIGYYLHRASMRGGTLLSRELHPVAPLLDNLTSALNKVYQRKGVNISLDISPEISFVGEQNDFVEVMGNVLDNACKYCLEFVEISARQTDEHLYIVVEDDGPGIPLSKREVIFDRGQRVDTLRPGQGVGLAVAREITEQYEGKIVAGESMLGGARMEVIFGRQHSAPKDE
# Variants of: B1
# Assay: enrichment ratio after two sorts for PhoP signalling (ratio (wild type AVST 3.29)); higher = more functional
# Details: with PhoP (E. coli)
row,Variant,enrichment ratio
1,PPDW,≤ 0.25
2,LAWA,≤ 0.25
3,GLPE,≤ 0.25
4,NFIN,≤ 0.25
5,WEKS,≤ 0.25
6,TFMC,16.5
7,PNYC,≤ 0.25
8,APSI,≤ 0.25
9,TMKL,≤ 0.25
10,HFLK,≤ 0.25
11,QFYA,≤ 0.25
12,IWAM,≤ 0.25
13,FRLR,≤ 0.25
14,MEND,≤ 0.25
15,GPTR,≤ 0.25
16,KMHW,≤ 0.25
17,AWLN,≤ 0.25
18,KPCM,≤ 0.25
19,ADPF,≤ 0.25
20,KHMC,≤ 0.25
21,SREE,≤ 0.25
22,HCAH,≤ 0.25
23,DWVI,≤ 0.25
24,QQDP,≤ 0.25

row,Variant,enrichment ratio
1,LRSG,≤ 0.25
2,ATPK,≤ 0.25
3,IALH,≤ 0.25
4,RKRA,≤ 0.25
5,MNHE,≤ 0.25
6,AKMH,12
7,SHWP,≤ 0.25
8,SQKR,≤ 0.25
9,LAWW,≤ 0.25
10,SVFK,≤ 0.25
11,FECH,5.62
12,HSKF,≤ 0.25
13,IRQM,≤ 0.25
14,SDLD,≤ 0.25
15,HNPL,≤ 0.25
16,VQSI,≤ 0.25
17,QYPA,≤ 0.25
18,LYGP,≤ 0.25
19,HGSR,≤ 0.25
20,PKKS,≤ 0.25
21,SAAV,8.96
22,MAHM,14.7
23,VTFG,≤ 0.25
24,ITPP,≤ 0.25

row,Variant,enrichment ratio
1,ESSY,≤ 0.25
2,WPNV,≤ 0.25
3,GFRM,≤ 0.25
4,INLR,≤ 0.25
5,KPPL,≤ 0.25
6,MNGR,≤ 0.25
7,VKDW,≤ 0.25
8,PPSD,≤ 0.25
9,AWPV,≤ 0.25
10,DIQS,≤ 0.25
11,IYPQ,≤ 0.25
12,DVVG,≤ 0.25
13,PMTL,≤ 0.25
14,SEGP,≤ 0.25
15,AWCA,≤ 0.25
16,GSMN,1.58
17,NPQS,≤ 0.25
18,QNTF,≤ 0.25
19,LQYK,≤ 0.25
20,TPYK,≤ 0.25
21,NDRM,≤ 0.25
22,LMAF,≤ 0.25
23,QEVD,≤ 0.25
24,LWRS,≤ 0.25

row,Variant,enrichment ratio
1,HECT,26.3
2,RCHF,≤ 0.25
3,YPPW,≤ 0.25
4,RKCQ,≤ 0.25
5,HSCW,≤ 0.25
6,RVGS,≤ 0.25
7,PQRL,≤ 0.25
8,APST,≤ 0.25
9,APHI,≤ 0.25
10,IKQR,≤ 0.25
11,KIAP,≤ 0.25
12,GNSS,5.64
13,DYYS,≤ 0.25
14,QELV,≤ 0.25
15,EGSY,≤ 0.25
16,IHLA,≤ 0.25
17,KKNS,≤ 0.25
18,HAPD,≤ 0.25
19,YYHS,≤ 0.25
20,ENAN,≤ 0.25
21,SHQK,≤ 0.25
22,NLAT,≤ 0.25
23,DHVT,≤ 0.25
24,QIDG,11

row,Variant,enrichment ratio
1,SPGG,≤ 0.25
2,TSQE,5.31
3,DTGM,≤ 0.25
4,FHDK,≤ 0.25
5,HRQQ,≤ 0.25
6,RCEF,≤ 0.25
7,PDAR,≤ 0.25
8,IKEI,≤ 0.25
9,CPEI,≤ 0.25
10,GMLG,7.81
11,LHAN,≤ 0.25
12,KCFI,≤ 0.25
13,MHWA,≤ 0.25
14,AVSK,16.9
15,DGDM,≤ 0.25
16,GKPY,≤ 0.25
17,STPA,≤ 0.25
18,NEIP,≤ 0.25
19,FEYV,≤ 0.25
20,AGKQ,≤ 0.25
21,TYAL,0.505
22,KAYM,≤ 0.25
23,WILF,≤ 0.25
24,LWQH,≤ 0.25

row,Variant,enrichment ratio
1,NYHW,≤ 0.25
2,LYFE,≤ 0.25
3,HFEW,≤ 0.25
4,FARI,≤ 0.25
5,LGSN,≤ 0.25
6,ESAK,≤ 0.25
7,FTPT,≤ 0.25
8,EKQH,≤ 0.25
9,TSTF,10
10,TWYC,≤ 0.25
11,KYNY,≤ 0.25
12,MSSQ,6.25
13,QAFG,1.5
14,LDQR,≤ 0.25
15,HKTN,≤ 0.25
16,VWTH,≤ 0.25
17,TPPG,≤ 0.25
18,QDMH,≤ 0.25
19,FCFV,≤ 0.25
20,WWFY,≤ 0.25
21,AVFN,≤ 0.25
22,PWAT,≤ 0.25
23,LMRR,≤ 0.25
24,IICC,≤ 0.25

row,Variant,enrichment ratio
1,QMCS,≤ 0.25
2,ADIA,≤ 0.25
3,MKPC,≤ 0.25
4,GKIC,≤ 0.25
5,QDHD,≤ 0.25
6,VYRN,≤ 0.25
7,NAKW,≤ 0.25
8,AWSK,≤ 0.25
9,IWNH,≤ 0.25
10,VATF,≤ 0.25
11,SNPV,≤ 0.25
12,HASE,≤ 0.25
13,PGQS,≤ 0.25
14,YCTG,≤ 0.25
15,IHNG,≤ 0.25
16,FPVG,≤ 0.25
17,PNVN,≤ 0.25
18,QCYI,≤ 0.25
19,DFCA,≤ 0.25
20,MPFL,4.17
21,YCRW,≤ 0.25
22,PRVG,≤ 0.25
23,SNLH,9.39
24,MKQI,≤ 0.25

row,Variant,enrichment ratio
1,FFKM,≤ 0.25
2,DDMR,≤ 0.25
3,AWIT,≤ 0.25
4,VLVH,≤ 0.25
5,PSMD,≤ 0.25
6,EIDM,≤ 0.25
7,HYLQ,≤ 0.25
8,EIAV,≤ 0.25
9,THIH,≤ 0.25
10,MGFG,3.15
11,MATA,≤ 0.25
12,ETTQ,≤ 0.25
13,ELQY,≤ 0.25
14,NQIN,≤ 0.25
15,EDVI,≤ 0.25
16,DDTF,≤ 0.25
17,ADYM,≤ 0.25
18,KHSW,≤ 0.25
19,RLSV,≤ 0.25
20,MRPF,≤ 0.25
21,KEVW,≤ 0.25
22,GQGN,≤ 0.25
23,LQTS,≤ 0.25
24,TTKC,≤ 0.25

row,Variant,enrichment ratio
1,IQHH,≤ 0.25
2,WENG,≤ 0.25
3,NTLT,≤ 0.25
4,EHFW,≤ 0.25
5,AGTQ,≤ 0.25
6,QRSD,≤ 0.25
7,VISF,≤ 0.25
8,NCKG,≤ 0.25
9,MNYK,≤ 0.25
10,TAER,≤ 0.25
11,SSLK,5.98
12,RKWC,≤ 0.25
13,WQCA,≤ 0.25
14,GGHF,≤ 0.25
15,KMQL,≤ 0.25
16,RSDN,≤ 0.25
17,GIAM,33.4
18,LYFR,0.305
19,TYIV,≤ 0.25
20,VHWD,≤ 0.25
21,GEAL,2.19
22,KSSQ,≤ 0.25
23,HSKP,≤ 0.25
24,FWNN,≤ 0.25

row,Variant,enrichment ratio
1,SYCG,3.73
2,KRFV,≤ 0.25
3,DFRF,≤ 0.25
4,FWRW,≤ 0.25
5,QYPP,≤ 0.25
6,VLGP,≤ 0.25
7,YMHH,≤ 0.25
8,NLFH,≤ 0.25
9,TYTF,≤ 0.25
10,QFYW,≤ 0.25
11,GGAM,18.2
12,QGMC,0.535
13,YFPE,≤ 0.25
14,KCHM,≤ 0.25
15,FREF,≤ 0.25
16,EWSM,≤ 0.25
17,PLRM,≤ 0.25
18,YMTQ,≤ 0.25
19,HMTF,≤ 0.25
20,YTQN,≤ 0.25
21,KGAT,0.465
22,PIWD,≤ 0.25
23,DYWK,≤ 0.25
24,RVFC,≤ 0.25

row,Variant,enrichment ratio
1,MELW,≤ 0.25
2,HGRV,≤ 0.25
3,GNYW,≤ 0.25
4,FIQL,≤ 0.25
5,QTIP,≤ 0.25
6,NKQF,≤ 0.25
7,LDEA,≤ 0.25
8,GHRA,≤ 0.25
9,DNFQ,≤ 0.25
10,KDAW,≤ 0.25
11,MRVP,≤ 0.25
12,PMVL,≤ 0.25
13,SKPS,≤ 0.25
14,IVLI,≤ 0.25
15,RPQH,≤ 0.25
16,KTAR,≤ 0.25
17,RQID,≤ 0.25
18,KGYQ,≤ 0.25
19,IRWE,≤ 0.25
20,PYVS,≤ 0.25
21,YVAC,≤ 0.25
22,WQKG,≤ 0.25
23,RPDM,≤ 0.25
24,VQGF,0.296

row,Variant,enrichment ratio
1,RLVP,≤ 0.25
2,IMHE,≤ 0.25
3,VCHY,≤ 0.25
4,FGQV,≤ 0.25
5,VLAT,≤ 0.25
6,HSWP,≤ 0.25
7,GSPR,≤ 0.25
8,ETHM,≤ 0.25
9,WGYK,≤ 0.25
10,FNAD,≤ 0.25
11,DNQT,≤ 0.25
12,HRHN,≤ 0.25
13,ESMM,≤ 0.25
14,SWGF,≤ 0.25
15,PMCV,≤ 0.25
16,KFAP,≤ 0.25
17,YGMA,≤ 0.25
18,WICP,≤ 0.25
19,NQWL,≤ 0.25
20,EFEM,≤ 0.25
21,EFNE,≤ 0.25
22,DFDA,≤ 0.25
23,WEAF,≤ 0.25
24,LSGL,≤ 0.25

row,Variant,enrichment ratio
1,DFLC,≤ 0.25
2,YGMH,≤ 0.25
3,NLSI,≤ 0.25
4,YNTC,≤ 0.25
5,NLMY,≤ 0.25
6,CMVC,≤ 0.25
7,TEDH,≤ 0.25
8,QKHT,≤ 0.25
9,SHTR,≤ 0.25
10,TTNP,≤ 0.25
11,EERL,≤ 0.25
12,IDTM,≤ 0.25
13,IDVS,≤ 0.25
14,ESNR,≤ 0.25
15,KRAD,≤ 0.25
16,HTRV,≤ 0.25
17,QEHN,5.05
18,GQMR,≤ 0.25
